Experimental data reported in the antibiotic and cytotoxicity screens of Wong et al. (2023).
The list shows a part of the results.

Legend:
HSkMC = human skeletal muscle cells; assay: cytotoxicity call (relative viability < 0.9); conditions: 10 µM
HepG2 = assay: cytotoxicity call (relative viability < 0.9); conditions: 10 µM
S. aureus RN4220 = assay: growth inhibition call (relative growth <= 0.2); conditions: 50 µM

| Compound | cytotoxicity call (HSkMC) | cytotoxicity call (HepG2) | growth inhibition call (S. aureus RN4220) |
| --- | --- | --- | --- |
| C[C@@H]1CCCCO[C@H](CN(C)Cc2ccc(Cl)c(Cl)c2)[C@@H](C)CN([C@H](C)CO)C(=O)c2cc(NS(=O)(=O)c3ccc(F)cc3)ccc2O1 | inactive | inactive | inactive |
| C[C@H]1CN([C@@H](C)CO)C(=O)Cc2cc(NS(=O)(=O)c3cn(C)cn3)ccc2O[C@H]1CN(C)C | inactive | inactive | inactive |
| C[C@@H]1CN([C@@H](C)CO)S(=O)(=O)c2ccc(Br)cc2O[C@@H]1CN(C)C(=O)C1CCCCC1 | inactive | inactive | inactive |
| COC(=O)[C@@H](NC(=O)Cn1cc(COc2ccccc2/C=C(C)/C=C/C(=O)NO)nn1)c1ccccc1 | inactive | active | inactive |
| Cn1nnc2c(Cl)ncnc21 | inactive | inactive | inactive |
| CC(C)NC(=O)Nc1ccc2c(c1)C(=O)N([C@@H](C)CO)C[C@H](C)[C@@H](CN(C)S(=O)(=O)c1cn(C)cn1)OCCCC[C@H](C)O2 | inactive | inactive | inactive |
| CC(C)CCC[C@@H](C)N | inactive | inactive | inactive |
| C[n+]1ccccc1/C=N/O | inactive | inactive | inactive |
| C=CCNC1=NS(=O)(=O)c2ccccc21 | inactive | inactive | inactive |
| Cc1noc(C)c1S(=O)(=O)N(C)C[C@H]1OCc2cn(nn2)CCCC(=O)N([C@@H](C)CO)C[C@H]1C | inactive | inactive | inactive |
| C[C@H](CO)N1C[C@H](C)[C@@H](CN(C)C(=O)Nc2ccccc2)Oc2ccc(NC(=O)C3CC3)cc2CC1=O | inactive | inactive | inactive |
| Cc1ccc(S(=O)(=O)N(C)C[C@@H]2OCCCC[C@H](C)Oc3ccc(NC(=O)c4ccccc4)cc3C(=O)N([C@H](C)CO)C[C@H]2C)cc1 | inactive | active | inactive |
| C[C@@H]1CN([C@@H](C)CO)C(=O)c2cccc(NC(=O)c3nc4ccccc4s3)c2O[C@@H]1CN(C)CC1CCCCC1 | inactive | active | inactive |
| CCOC(=O)Cc1c(C)[nH]c(=O)[nH]c1=O | inactive | inactive | inactive |
| C[C@@H]1CCCCO[C@H](CN(C)C(=O)Nc2cccc3ccccc23)[C@@H](C)CN([C@H](C)CO)C(=O)c2cc(NC(=O)CCCCCC(=O)Nc3ccccc3N)ccc2O1 | inactive | inactive | inactive |
| CCN(CC)/[N+]([O-])=N/OC | inactive | inactive | inactive |
| C[C@H]1CN([C@@H](C)CO)C(=O)Cc2cc(NC(=O)Cc3cn(C)c4ccccc34)ccc2O[C@@H]1CN(C)Cc1ccc(Oc2ccccc2)cc1 | inactive | inactive | inactive |
| C[C@@H](O)C#Cc1ccc2c(c1)O[C@H](CN(C)C(=O)c1ccncc1)[C@@H](C)CN([C@@H](C)CO)S2(=O)=O | inactive | inactive | inactive |
| C[C@@H]1CN([C@H](C)CO)C(=O)CCCn2cc(nn2)CO[C@@H]1CN(C)C(=O)c1ccc(N2CCN(C)CC2)cc1 | inactive | inactive | inactive |
| CCc1cccc(C)c1NC(C)=O | inactive | inactive | inactive |
| Cc1noc(C)c1S(=O)(=O)Nc1cccc2c1O[C@H](CN(C)Cc1ccc3c(c1)OCO3)[C@H](C)CN([C@@H](C)CO)C2=O | inactive | inactive | inactive |
| C[C@@H]1CN([C@@H](C)CO)C(=O)c2cc(NC(=O)C3CCCCC3)ccc2O[C@@H](C)CCCCO[C@@H]1CN(C)S(=O)(=O)c1ccc(Cl)cc1 | inactive | inactive | inactive |
| C[C@H](CO)N1C[C@H](C)[C@@H](CN(C)C(=O)Nc2ccc(F)cc2)Oc2ccc(NC(=O)CCN3CCOCC3)cc2C1=O | inactive | inactive | inactive |
| C[C@@H]1CN([C@H](C)CO)C(=O)c2cc(NC(=O)Nc3ccc4c(c3)OCO4)ccc2O[C@@H](C)CCCCO[C@H]1CN(C)S(=O)(=O)c1cccs1 | inactive | inactive | inactive |
| C[C@H](CO)N1C[C@H](C)[C@H](CN(C)S(=O)(=O)c2ccccc2C#N)OCc2cnnn2CCCC1=O | inactive | inactive | inactive |
| COc1ccccc1S(=O)(=O)N[C@H]1CC[C@H](CCNC(=O)C2CCOCC2)O[C@H]1CO | inactive | inactive | inactive |
| NCc1cccc(COc2ccccc2)c1 | inactive | inactive | inactive |
| O=C(N[C@H]1C=C[C@H](CC(=O)N2CCOCC2)O[C@@H]1CO)c1ccccn1 | inactive | inactive | inactive |
| C/C=C/c1ccc2c(c1)O[C@@H](CN(C)S(=O)(=O)c1ccccc1)[C@@H](C)CN([C@@H](C)CO)S2(=O)=O | inactive | inactive | inactive |
